In patent publication US8551954B2, “Antimicrobial peptides with heparin binding activity” (Pergamum AB, priority 2003, dated 2013):

What was measured:
E. coli = assay: Radial diffusion assay (RDA); type: cell-based, Escherichia coli; details: peptide 100 μM; (diameter of clear zone in mm - well diameter) x 10; 18-24 h at 37° C.
Description: Radial diffusion assays (RDA) were performed essentially as described earlier (Andersson et al., Eur J Biochem, 2004, 271:1219-1226). Briefly, bacteria (E. coli) or fungi (C. albicans) were grown to mid-logarithmic phase in 10 ml of full-strength (3% w/v) trypticase soy broth (TSB) (Becton-Dickinson, Cockeysville, Md.). The microorganisms were washed once with 10 mM Tris, pH 7.4. 4×10^6 bacterial cfu or 1×10^5 fungal cfu was added to 5 ml of the underlay agarose gel, consisting of 0.03% (w/v) TSB, 1% (w/v) low-electroendosmosistype (Low-EEO) agarose (Sigma, St Louise Mo.) and a final concentration of 0.02% (v/v) Tween 20 (Sigma). The underlay was poured into a Ø 85 mm petri dish. After agarose solidified, 4 mm-diameter wells were punched and 6 μl of test sample was added to each well. Plates were incubated at 37° C. for 3 hours to allow diffusion of the peptides. The underlay gel was then covered with 5 ml of molten overlay (6% TSB and 1% Low-EEO agarose in dH2O). Antimicrobial activity of a peptide is visualized as a clear zone around each well after 18-24 hours of incubation at 37° C. Synthetic peptides were tested in concentrations of 100 μM to determine the antibacterial effect relative the known peptide LL-37. To minimize variation between experiments, a LL-37 standard (100 μM) was included on each plate. The activities of the peptides are presented in radial diffusion units ((diameter of clear zone in millimeters—well diameter)×10).

E. faecalis = assay: Bactericidal (colony-forming unit) assay of histidine-rich peptides with or without zinc; type: cell-based, Enterococcus faecalis
Description: FIG. 3 describes bactericidal effects of histidine-rich peptides. E. faecalis bacteria were grown to mid-logarithmic phase in Todd-Hewitt (TH) medium. Bacteria were washed and diluted in either 10 mM Tris, pH 7.4, containing 5 mM glucose with or without 50 μM ZnCl or 10 mM MES-buffer, 5 mM glucose, pH 5.5. Bacteria (50 μl; 2×10^6 cfu/ml) were incubated, at 37° C. for 2 hours, with the synthetic peptide at concentrations ranging from 0.03 to 60 μM (Tris-buffer with or without zinc), or 30 and 60 uM (Tris and MES-buffer). To quantify the bactericidal activity, serial dilutions of the incubation mixture were plated on TH agar, followed by incubation at 37° C. overnight and the number of colony-forming units was determined. […] SEQ ID NO:4) and kininogen (KHN20: SEQ ID NO:3, GGH20: SEQ ID NO:2 and HKH20: SEQ ID NO:1) in the presence or absence of 50 uM ZnCl are shown. (B): Effects of peptides (30 and 60 uM) in 10 mM Tris, pH 7.4, containing 5 mM glucose or 10 mM MES-buffer, 5 mM glucose, pH 5.5. The numbers indicate % survival where 100% is control (without peptide). (C): Effects of peptides AHH24: 1 and AHH24:2 on E. faecalis in the presence of a fixed peptide/zinc molar ratio (1:100).

[1] = system: Enterococcus faecalis (isolate 2374); assay: Bactericidal (colony-forming unit) assay of arginine and lysine-rich peptides; type: cell-based; details: 0.03 to 60 μM peptide, 10 mM Tris pH 7.4, 5 mM glucose, 37° C. 2 hours
Description: FIG. 1 describes bactericidal effects of arginine and lysine-rich peptides (Sequence listing) on Enterococcus faecalis. Bacteria were grown to mid-logarithmic phase in Todd-Hewitt (TH) medium. Bacteria were washed and diluted in either 10 mM Tris, pH 7.4, containing 5 mM glucose Bacteria (50 μl; 2×10^6 cfu/ml) were incubated, at 37° C. for 2 hours, with the synthetic peptide at concentrations ranging from 0.03 to 60 μM. To quantify the bactericidal activity, serial dilutions of the incubation mixture were plated on TH agar, followed by incubation at 37° C. overnight and the number of colony-forming units was determined. 2×10^6 colony-forming units (CFU)×ml^-1 of E. faecalis (isolate 2374) were incubated in 50 μl with peptides at concentrations ranging from 0.03 to 60 μM. (A) Synthetic peptides derived from laminin. Effect of peptides from the LG-domain of the α5 chain (PPP25: SEQ ID NO:13, LGT25: SEQ ID NO:12, RLR22: SEQ ID NO:14, PGR11: SEQ ID NO:15) and α1 chain (SRN16: SEQ ID NO:8, SRN29:SEQ ID NO:9, KDF15:SEQ ID NO:10, SAV15:SEQ ID NO:11) are shown. One peptide (RIQ18:SEQ ID NO:16) is derived from the β1 chain. (B) Three peptides are derived from the complement factor C3 (LRK26:SEQ ID NO:5, LGE27:SEQ ID NO:6 and CNY21:SEQ ID NO:7), AKK15 from vitronectin, SEK20:SEQ ID NO: 19 from the protein C inhibitor, QPP18:SEQ ID NO:17 from fibronectin, and YIG23:SEQ ID NO:18 from the von Willebrand factor.

Pseudomonas aeruginosa = assay: Electron microscopy analysis of bacteria subjected to antimicrobial peptides; type: cell-based; details: peptide at ~50% of the required bactericidal concentration
Description: (A) Control. (B-H) Analysis of bacteria treated with peptides at 50% of the required bactericidal concentration. HKH20 was also analysed at 200%.

Substance | Radial diffusion units (E. coli) [radial diffusion units] | other results
LGTRLRAQSRQRSRPGRWHKVSVRW (LGTRLRAQSRQRSRPGRWHKVSVRW; derived from laminin) [LGT25, peptide derived from Laminin-α5] | 85 | 
RIQNLLKITNLRIKFVKL (derived from laminin) [RIQ18, peptide derived from Laminin-β1] | 93 | 
QPPRARITGY IIKYEKPG (QPPRARITGYIIKYEKPG; derived from fibronectin) [QPP18, peptide derived from Fibronectin] | 59 | 
AKKARAAKKARAAKKARAAKKARA (AKKARAAKKARAAKKARAAKKARA) [AKK24] | 67 | 
AHHAHAAHHAHAAHHAHAAHHAHA (AHHAHAAHHAHAAHHAHAAHHAHA; derived from synthetic K-H sequence) [AHH24:1] |  | antimicrobial activity on E. faecalis without zinc (E. faecalis): no antimicrobial activity
GHRPLDKKREEAPSLRPA (completely synthesized, derived from heparin-binding consensus sequence) |  | antimicrobial effect on E. faecalis [1]: not antimicrobial
AHHHAAHAAHHHAAHAAHHHAAHA (AHHHAAHAAHHHAAHAAHHHAAHA; derived from synthetic K-H sequence) [AHH24:2] |  | antimicrobial activity on E. faecalis without zinc (E. faecalis): no antimicrobial activity
SRNLSEIKLLISQARKQAASIKVAVSADR (SRNLSEIKLLISQARKQAASIKVAVSADR; derived from laminin) [SRN29, peptide derived from Laminin-α1] | 71 | 
PGRWHKVSVR W (PGRWHKVSVRW; derived from laminin) [PGR11, text: α5 chain)] | 86 | 
AKKQRFRHRN RKGYR (AKKQRFRHRNRKGYR; derived from vitronectin) [AKK15, peptide derived from Vitronectin] | 101 | 
CNYITELRRQHARASHLGLAR (derived from complement factor C3) [CNY21, peptide derived from C3a] | 32 | 
ARKKAAKAARKKAAKAARKKAAKA (ARKKAAKAARKKAAKAARKKAAKA) [ARK24] | 74 | 
LVTSKGDKELRTGKEKVTS (completely synthesized, derived from heparin-binding consensus sequence) |  | antimicrobial effect on E. faecalis [1]: not antimicrobial
KDFLSIELFR GRVKV (KDFLSIELFRGRVKV; derived from laminin) [KDF15, peptide derived from Laminin-α1] | 65 | 
SAVRKKLSVE LSIRT (SAVRKKLSVELSIRT; derived from laminin) [SAV15, peptide derived from Laminin-α1] | 75 | 
PPPPLTSASKAIQVFLLGGSRKRVL (PPPPLTSASKAIQVFLLGGSRKRVL; derived from laminin) [PPP25, peptide derived from Laminin-α5] | 81 | 
SRNLSEIKLLISQARK (derived from laminin) [SRN16, peptide derived from Laminin-α1] | 77 | 
KNNQKSEPLIGRKKT (completely synthesized, derived from heparin-binding consensus sequence) |  | antimicrobial effect on E. faecalis [1]: not antimicrobial
YIGLKDRKRPSELRRIASQVKYA (YIGLKDRKRPSELRRIASQVKYA; derived from von willebrand factor) [YIG23, peptide derived from Von Willebrand Factor] | 80 | 
RLRAQSRQRSRPGRWHKVSVRW (RLRAQSRQRSRPGRWHKVSVRW; derived from laminin) [RLR22, peptide derived from Laminin-α5] | 92 | 
LL-37 [reference compound] | 50 | morphology of treated bacteria (electron microscopy) (Pseudomonas aeruginosa): local perturbations and breaks along P. aeruginosa bacterial cell membranes
